Reference: PubChem BioAssay AID624202 (National Center for Advancing Translational Sciences (NCATS), 2012)
Out of some 380,000 compounds screened, about 4,000 (1.1%) were called active. This list was built around the results that the source calls inconclusive (neither active nor inactive); the mix of calls is not that of the screen. Calls come from the whole dose curve; as a rule, active = well fitted activation curve with a large enough effect; inconclusive = small, poorly fitted or top-dose-only effect; inactive = no such curve, though single readings can be large or run the other way. Potencies of inconclusive entries are doubtful fits and often do not repeat.

assay: qHTS Assay to Identify Small Molecule Activators of BRCA1 Expression; conditions: MCF7-BRCA1-FFLuc reporter, luminescence, 48 h; activation: at 46.1 µM (top of the series), scaled: vehicle 0%, 10 µM genistein 100% unless noted; note: nearly all actives have a fitted effect of over 80% in size
Procedure, shortened: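 Cells: MCF7-BRCA1-FFLuc, 2000/well. Exposure: 48 h, 37 °C, 5% CO2. Read: luminescence, 15 min post-substrate. Controls: genistein 10 microM (maximal activation), DMSO (neutral).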
Potency is the fitted concentration of half-maximal effect; tags give direction and shape of the fitted curve.

Row | SMILES | Potency | activation
1 | CC(C)c1ccc(OCC(=O)N2CCCCCC2)c(Br)c1 | active: 10 µM | –
2 | N#C/C(=N\Nc1ccccc1F)C(=N)N1CCCCC1 | inconclusive: 2.51 µM [activator, full curve, poor fit] | –
3 | Cc1ccc(COn2c(-c3ccc(Cl)cc3)nc3ccc([N+](=O)[O-])cc32)cc1 | active: 10 µM | –
4 | Cc1ccc(S(=O)(=O)NC(=O)C2(C)CCN2C(=O)c2cccc(F)c2)nc1 (stereo unspecified) | – | inactive: 18.9%
5 | O=C(Nc1nc2ccccc2s1)c1ccccc1 | inconclusive: 3.16 µM [activator, partial curve, poor fit] | –
6 | CCCCCCCCCCCCCCCC[n+]1ccc(/C=N/O)cc1 | – | inactive: -74%
7 | CCOC(=O)C1(Cc2cccc(OC)c2)CCCN(C(=O)c2cc(C)oc2C)C1 (stereo unspecified) | inconclusive: 22.4 µM [activator, single point] | –
8 | c1ccc(CSc2nnc(-c3ccco3)o2)cc1 | – | inactive: 0%
9 | O=C(CSc1ccc(Cl)cc1)Nc1ccc(N2CCN(c3ccccc3)CC2)c(F)c1 | – | inactive: -5.67%
10 | COc1cc(/C=N/Nc2ccccc2C(F)(F)F)ccc1O | inconclusive: 35.5 µM [activator, single point] | –
11 | CC(=O)Nc1nnc(-c2c(-c3ccccc3Cl)noc2C)o1 | – | inactive: -8.61%
12 | COc1ccc(C(=O)NC(=S)Nc2ccc(S(=O)(=O)Nc3cc(C)on3)cc2)cc1OC | – | inactive: 0%
13 | O=C(CCNc1cc(Cl)cc(Cl)c1)c1ccco1 | – | inactive: -31%
14 | c1ccn(-c2ccc(N3CCOCC3)cc2)c1 | inconclusive: 15.8 µM [activator, partial curve, poor fit] | –
15 | COc1ccc(OC)c(CNc2ncc(-c3ccc(Cl)cc3)n2C)c1 | – | inactive: 11.4%
16 | Cc1scc(C(=O)N/N=C/c2ccc(OC(C)C)cc2)c1C | inconclusive: 11.2 µM [activator, partial curve, poor fit] | –
17 | CC(C)COc1ccc(-c2nnn(CC(=O)N3CCCC3)n2)cc1 | active: 10 µM | –
18 | Cc1nn(-c2ccc(N3CCCCC3)nn2)c(C)c1CCC(=O)Nc1cccc(F)c1 | inconclusive: 1.78 µM [activator, partial curve, poor fit] | –
19 | Cc1ccc2nc(-c3ccccn3)cc(C(=O)NCCc3ccc(F)cc3)c2c1 | – | inactive: -25.3%
20 | CC1CC(=O)c2cnc(Nc3cccc(C(F)(F)F)c3)nc2C1 (stereo unspecified) | inconclusive: 20 µM [activator, partial curve, poor fit] | –
21 | CC(C)(O)C#Cc1ccc(C(=O)NCc2cccs2)s1 | inconclusive: 35.5 µM [activator, single point] | –
22 | Cc1ccc(C(C(=O)NC2CCCCC2)N(Cc2ccco2)C(=O)Cn2cnc3ccccc32)cc1 (stereo unspecified) | – | inactive: -40.2%
23 | Cc1ccc(C)c(NC(=O)Cn2cc(S(=O)(=O)c3ccc(F)cc3)c(=O)c3cc(F)ccc32)c1 | – | inactive: 13.6%
24 | COc1ccc(/C=C/C(=O)N(C)C2CCCCC2)cc1Br | inconclusive: 11.2 µM [activator, partial curve, poor fit] | –
25 | CCOc1ccc(N(C)S(=O)(=O)c2cc(-c3cnc(C)o3)ccc2OC)cc1 | – | inactive: -1.24%
26 | O=C(Nc1ccccc1N1CCCC1)c1ccco1 | – | inactive: 25.8%

Row | SMILES | Potency | activation
27 | COc1ccc(Nc2cc(Nc3ccccc3)ncn2)cc1 | inconclusive: 1.58 µM [activator, full curve, poor fit] | –
28 | CN(c1ccc(O)cc1)S(=O)(=O)c1ccc2ccccc2c1 | inconclusive: 10 µM [activator, partial curve, poor fit] | –
29 | COCC(=O)Nc1nnc(-c2ccc(C(C)(C)C)cc2)s1 | inconclusive: 2 µM [activator, full curve, poor fit] | –
30 | O=C(CCCOc1ccc(Cl)cc1)N1CCCCC1 | active: 12.6 µM | –
31 | Cc1noc(C)c1C(=O)Nc1nc2ccc(F)cc2s1 | inconclusive: 1.26 µM [activator, partial curve, poor fit] | –
32 | O=C(O)CN1C(=O)/C(=C\c2cccc(OCc3ccc(Cl)cc3Cl)c2)SC1=S | inconclusive: 14.1 µM [activator, partial curve, poor fit] | –
33 | CC(C)(C)c1ccc(NC(=O)C2=CC=CN3CCS(=O)(=O)N=C23)cc1 | active: 10 µM | –
34 | COc1cccc(CNn2c(-c3cccc(C)c3)nc3ccccc3c2=O)c1 | – | inactive: -14.5%
35 | CN(C)c1ccc(N=Cc2nc(-c3ccccc3)oc2OC(=O)c2cccc(Br)c2)cc1 | active: 3.16 µM | –
36 | CN(C)c1ccc(/C=N/NC(=O)c2ccccc2)cc1 | inconclusive: 1.26 µM [activator, partial curve, poor fit] | –
37 | CSCCC(=O)N1CCC(n2nccc2NC(=O)c2ccc3c(c2)OCO3)CC1 | inconclusive: 35.5 µM [activator, partial curve, poor fit] | –
38 | CCCn1c(CNc2ccccc2O)nc2ccccc21 | – | inactive: -37.4%
39 | Cc1ccccc1OCc1nc(-c2cccnc2)no1 | inconclusive: 14.1 µM [activator, partial curve, poor fit] | –
40 | O=C1c2cc(S(=O)(=O)NCCO)ccc2-c2ccc(S(=O)(=O)NCCO)cc21 | – | inactive: -4.16%
41 | Cc1cc(C)c2c(N)c(C(=O)Nc3ccc([N+](=O)[O-])cc3)sc2n1 | inconclusive: 1.26 µM [activator, full curve, poor fit] | –
42 | Clc1cccc(CNc2ccn3nc(-c4cccs4)cc3n2)c1 | active: 8.91 µM | –
43 | CCOc1ccc(N(CC(=O)Nc2cc(C)cc(C)c2)S(C)(=O)=O)cc1 | active: 12.6 µM | –
44 | Cc1ccccc1NC(=O)c1onc2c1CCCC2 | inconclusive: 2 µM [activator, partial curve, poor fit] | –
45 | OCC1OC(n2ccc3c(NO)ncnc32)C(O)C1O (stereo unspecified) | – | inconclusive: -106% [activator]
46 | C=CCn1c(C)cc(C(=O)CSc2nc3ccccc3c(=O)[nH]2)c1C | inconclusive: 1.58 µM [activator, partial curve, poor fit] | –
47 | CCC(=O)Nc1cccc(NC(=S)NC(=O)c2ccc(C)cc2)c1 | inconclusive: 1.78 µM [activator, partial curve, poor fit] | –
48 | COc1cc(C(=O)OCC(=O)N2CCCCC2C)cc(NC(=O)c2cccs2)c1OC (stereo unspecified) | – | inactive: -18.2%
49 | CC1(C)CCc2cc(-c3ccnc(=S)[nH]3)ccc2O1 | inconclusive: 1.12 µM [activator, full curve, poor fit] | –
50 | c1ccc2oc(-c3csc(NCC4CCCO4)n3)cc2c1 (stereo unspecified) | inconclusive: 1.58 µM [activator, partial curve, poor fit] | –
51 | CCOC(=O)c1ccc2nc(NC(=O)c3ccco3)sc2c1 | inconclusive: 0.631 µM [activator, full curve, poor fit] | –
52 | CC1(C)CC(=O)C=C(c2ccc(-c3ccccc3)cc2)C1=O | active: 12.6 µM | –

Row | SMILES | Potency | activation
53 | O=C(Nc1cccc(F)c1)c1ccc2ncsc2c1 | inconclusive: 1.12 µM [activator, full curve, poor fit] | –
54 | Cc1cccc(NCc2ccc(O)c3ncccc23)c1C | – | inactive: -43.1%
55 | Cc1cccc(C)c1OCc1cc(C(=O)N2CC3C[C@@H]4CC2C[C@H](C3)C4)no1 | inconclusive: 2.82 µM [activator, full curve, poor fit] | –
56 | N=C1SCC(=O)N1c1nc(-c2ccccc2)cs1 | active: 7.94 µM | –
57 | Cc1ccc(C(=O)/C=C/Nc2ccc([N+](=O)[O-])cc2Br)cc1 | inconclusive: 25.1 µM [activator, single point] | –
58 | CCOC(=O)c1[nH]c2cc(OC)c(OC)cc2c1NC(=O)c1ccc2c(c1)OCO2 | – | inactive: -5.79%
59 | COc1cccc(NC(=O)CN(C)C(=O)CCCNC(=O)c2ccc(Cl)cc2)c1 | – | inactive: 51.1%
60 | C/C(=N\O)c1ccc2c3c([nH]c2c1)CCCC3 | active: 10 µM | –
61 | O=C(O)c1cc(N/N=C/c2cccc3ccccc23)ccc1Cl | inconclusive: 1.58 µM [activator, full curve, poor fit] | –
62 | O=C(NN/C(=N/S(=O)(=O)c1ccc(Cl)cc1)c1ccccc1)c1ccc(O)cc1 | inconclusive: 6.31 µM [activator, partial curve, poor fit] | –
63 | Cc1ccc2nc(NCc3ccccc3)c(C=NCc3ccccc3)c(=O)n2c1 | active: 12.6 µM | –
64 | Cc1c(Nc2nc3ccccc3n3cnnc23)cccc1[N+](=O)[O-] | – | inactive: -11.2%
65 | c1ccc2[nH]c(NCc3ccc4c(c3)OCO4)nc2c1 | inconclusive: 2.51 µM [activator, full curve, poor fit] | –
66 | NS(=O)(=O)c1ccc(NC(=S)NCCc2ccccc2)cc1 | – | inactive: -18.1%
67 | CC(=O)c1ccc(NS(=O)(=O)c2ccc(N)cc2)cc1 | inconclusive: 35.5 µM [activator, single point] | –
68 | CN(C(=O)C1CC1)C1CCS(=O)(=O)C1 (stereo unspecified) | – | inactive: 21.1%
69 | Cc1ccc(Cl)cc1N1CCN(CCCNC(=O)c2nnc(Cc3cccc(Cl)c3)o2)CC1 | – | inactive: -62%
70 | Cc1ccc(/C=N/N=C/c2ccc(C)s2)s1 | inconclusive: 2.51 µM [activator, full curve, poor fit] | –
71 | CCOc1ccc2cc(C#N)c(SCC(=O)OC)nc2c1 | inconclusive: 3.16 µM [activator, partial curve, poor fit] | –
72 | O=C(/C=C/c1nc2ccccc2s1)N1CCCCCC1 | inconclusive: 2.24 µM [activator, full curve, poor fit] | –
73 | CCC1CCCCN1CCCNC(=O)c1ccc2c(c1)N(Cc1ccc(Cl)cc1)C(=O)c1ccccc1S2(=O)=O (stereo unspecified) | – | inactive: -36.7%
74 | CCCN1CCC(N2CCN(c3cccc(C(F)(F)F)c3)CC2)CC1 | – | inactive: -11.5%
75 | O=C(c1ccc(-c2ccc(Cl)cc2Cl)o1)N1CCOCC1 | inconclusive: 14.1 µM [activator, partial curve, poor fit] | –
76 | Nc1ccc2oc(CCc3ccccc3)nc2c1 | inconclusive: 1 µM [activator, full curve, poor fit] | –
